# Results from PubChem BioAssay (Tox21).
# Where “and” joins values, the source holds several entries; their conditions need not be identical. Equal entries are not always repeated. This list was built around the results that the source calls inconclusive (neither active nor inactive); the mix of calls is not that of the screen. A potency beside an inconclusive call is a rough fit, not a confirmed value. Where a structure was tested more than once in an assay, its records may differ in their call. Calls of active or inactive are those of the source. Unless noted, the call rests on the fitted dose curve; in most records, active means well fitted curve in the direction sought with a large enough effect in the repeat runs; inconclusive means weak or mixed curves; inactive means no such curve, though single readings can be large; an effect the other way counts as inactive or inconclusive.
# What was measured:
# [1] = qHTS RealTime-Glo MT Cell Viability Assay in HepG2 cells - 16 hour (AID 1224885); details: RealTime-Glo luminescence; series mostly up to 76.8 µM; further: nearly all actives have a fitted effect of over 50% in size
# Outline: (§1)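 Cells + NanoLuc/prosubstrate dispensed (600 cells/well) → 5 h at 37 C/5% CO2 → compounds in DMSO transferred → 40 h incubation at 37 C, luminescence read at 0, 8, 16, 24, 32, 40 h.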
# [2] = qHTS RealTime-Glo MT Cell Viability Assay in HEK293 cells - 24 hour (AID 1224886); details: RealTime-Glo luminescence; series mostly up to 76.8 µM; further: nearly all actives have a fitted effect of over 50% in size
# Outline: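 Tox21 10K qHTS, HEK293, 600 cells/well, RealTime-Glo reagent co-dispensed with cells; 5 h preincubation, compound by pintool, 37 C, luminescence at 0–40 h.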
# [3] = qHTS assay to identify small molecule antagonists of the sonic hedgehog signaling (Shh) pathway (AID 1259369; calls by dose curve; further: nearly all actives have a fitted effect of over 45% in size); details: NIH/3T3 Gli1-Luc reporter, Shh antagonist, luminescence 24 h; series mostly up to 92.4 µM
# Outline: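 NIH/3T3 stable Gli1-Luc clone, 2,000 cells/well, 4hr settle; cpd + conditioned medium 24hr; Luc reagent 30min RT; luminescence.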
# [4] = target: Estrogen receptor beta (Homo sapiens) (UniProt Q92731); assay: qHTS assay to identify small molecule agonists of the estrogen receptor beta (ER-beta) signaling pathway (AID 1259377; active means well fitted activation curve with a large enough effect in the signal ratio in the repeat runs, not every such curve was filed as active; inconclusive means weak or mixed curves, or effect the other way; the % refers to the signal ratio); details: ER-beta-UAS-bla HEK293T, beta-lactamase FRET ratio, 16 h; series mostly up to 92.4 µM
# Outline: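 ER-beta-UAS-bla HEK293T (GripTite) cells carrying a UAS-driven beta-lactamase reporter, in medium with 2% charcoal-stripped FBS, were exposed to compounds for 16 hr at 37C; LiveBLAzer B/G FRET substrate was then added and fluorescence read after 2 hours at room temperature.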
# [5] = target: Estrogen receptor beta (Homo sapiens) (UniProt Q92731); assay: qHTS assay to identify small molecule antagonists of the estrogen receptor beta (ER-beta) signaling pathway (AID 1259378; active means well fitted inhibition curve with a large enough effect in the signal ratio in the repeat runs, not every such curve was filed as active; inconclusive means weak or mixed curves, or effect the other way; inactive means no such curve, though single readings can be large or run the other way; the % refers to the signal ratio); details: ER-beta-UAS-bla HEK293T, beta-lactamase FRET ratio, 16 h; series mostly up to 92.4 µM
# Outline: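 ER-beta-UAS-bla HEK293T (GripTite) cells in 2% charcoal-stripped FBS medium were preincubated 6 hr at 37C, dosed with compound, then stimulated with 1 nM E2 (final) for 16 hr; beta-lactamase reporter read by B/G FRET fluorescence after 2 hr substrate loading.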
# [6] = A CellTox Green Cytotoxicity Assay to monitor cytotoxicity in HEK293 cells - 16 hour (AID 1224888); details: CellTox Green fluorescence; series mostly up to 76.8 µM; further: nearly all actives have a fitted effect of over 35% in size
# Outline: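 Tox21 screen in HEK293: membrane-impermeant cyanine dye fluoresces on binding dead-cell DNA; compound pinned 5 h post-seeding, plates held at 37 C, signal read repeatedly through 40 h.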
# [7] = qHTS assay to identify small molecule antagonists of the estrogen receptor alpha (ER-alpha) signaling pathway using the BG1 cell line in the presence of 0.1 nM 17-beta-estradiol - cell viability counter screen (AID 1259241); details: VM7Luc4E2 (BG1) viability, CellTiter-Fluor protease, 22 h, 0.1 nM estradiol agonist added; series mostly up to 92.4 µM; further: nearly all actives have a fitted effect of over 40% in size
# Outline: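 VM7Luc4E2 cells (endogenous ER-alpha, 4×ERE-luciferase), hormone-starved 5 days in charcoal-stripped FBS, were treated with compounds plus 0.1 nM 17beta-estradiol for 22 hr at 37C; viability read in same wells as CellTiter-Fluor live-cell protease fluorescence.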
# [8] = qHTS assay to identify small molecule antagonists of the androgen receptor (AR) signaling pathway using the MDA cell line in the presence of 0.5 nM R1881 - cell viability counter screen (AID 1259242); details: MDA-kb2 viability, CellTiter-Fluor protease fluorescence, 16 h; series mostly up to 92.4 µM; further: nearly all actives have a fitted effect of over 45% in size
# Outline: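 Concentration-response screen of compounds for toxicity in MDA-kb2 reporter cells: 16 hr at 37C with 0.5 nM R1881, endpoint live-cell protease fluorescence measured in the reporter wells.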
# [9] = qHTS assay to identify small molecule agonists of the sonic hedgehog signaling (Shh) pathway - cell viability counter screen (AID 1259366); details: NIH/3T3 Gli1-Luc viability, CellTiter-Fluor, 24 h; series mostly up to 92.4 µM; further: nearly all actives have a fitted effect of over 50% in size
# Outline: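 NIH/3T3-derived 3T3 Gli1-Luc cells (stable Gli1-responsive firefly luciferase reporter) were seeded, rested 4 hr at 37 C/5% CO2, then exposed to compounds in DMSO for 24 hr; viability was read by CellTiter-Fluor fluorescence in the same wells.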
# [10] = qHTS RealTime-Glo MT Cell Viability Assay in HepG2 cells - 0 hour (AID 1224889); details: RealTime-Glo luminescence; series mostly up to 76.8 µM; further: nearly all actives have a fitted effect of over 50% in size
# Outline: as §1
# [11] = qHTS assay to identify small molecule HDAC inhibitors - cell viability counter screen (AID 1259365); details: HCT-116 viability, CellTiter-Glo ATP luminescence, 2 h; series mostly up to 92.4 µM; further: nearly all actives have a fitted effect of over 50% in size
# Outline: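 Wild-type HCT-116 cells were seeded at 1,500 per well, incubated overnight at 37 C, then exposed to compounds in DMSO for 2hr. Viability was read by CellTiter-Glo luminescence after 30min at room temperature.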
# [12] = qHTS assay to identify small molecule antagonists of the sonic hedgehog signaling (Shh) pathway - cell viability counter screen (AID 1259367); details: NIH/3T3 Gli1-Luc viability, CellTiter-Fluor, 24 h; series mostly up to 92.4 µM; further: nearly all actives have a fitted effect of over 55% in size
# Outline: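 Cytotoxicity was assessed in parallel with Shh reporter activity by measuring live-cell protease fluorescence (CellTiter-Fluor) in NIH/3T3 cells stably carrying Gli1-Luc, treated with compound under conditioned medium stimulation for 23 hr plus 1 hr reagent incubation.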
# [13] = qHTS assay to identify small molecule agonists of the androgen receptor (AR) signaling pathway in the presence of an antagonist - cell viability counter screen (AID 1259379); details: MDA-kb2 viability, CellTiter-Fluor, 16 h; series mostly up to 92.4 µM; further: nearly all actives have a fitted effect of over 25% in size
# Outline: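 MDA-kb2 viability measured by CellTiter-Fluor fluorescence in the same wells as the luciferase signal; nilutamide 3.0uM final; 15-point compound titration; 16 hr at 37C.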
# [14] = qHTS assay to identify small molecule agonists of the sonic hedgehog signaling (Shh) pathway (AID 1259368; calls by dose curve; further: nearly all actives have a fitted effect of over 15% in size); details: NIH/3T3 Gli1-Luc reporter, luciferase, 24 h; series mostly up to 92.4 µM
# Outline: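 Hedgehog pathway agonism scored by increased firefly luciferase luminescence in 3T3Gli1-Luc cells treated 24 hr at 37 C; detection used a 30 min room-temperature reagent incubation.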
# [15] = qHTS RealTime-Glo MT Cell Viability Assay in HEK293 cells - 8 hour (AID 1224887); details: RealTime-Glo luminescence; series mostly up to 76.8 µM; further: nearly all actives have a fitted effect of over 50% in size
# Outline: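 HEK293 + NanoLuc + prosubstrate, 600 cells/well; 5 h, 37 C/5% CO2; compound 23 nL in DMSO by pintool; 37 C; luminescence read at 0, 8, 16, 24, 32 and 40 h time points.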
# [16] = A CellTox Green Cytotoxicity Assay to monitor cytotoxicity in HepG2 cells - 8 hour (AID 1224890); details: CellTox Green fluorescence; series mostly up to 76.8 µM; further: nearly all actives have a fitted effect of over 45% in size
# Outline: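 Measurements at 0, 8, 16, 24, 32 and 40 h of treatment captured CellTox Green fluorescence in HepG2 cells that had been co-plated with reagent and preincubated 5 h at 37 C/5% CO2.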
# Potency means the concentration at half of the fitted maximal effect; tags describe the fitted curve by direction and shape or compound fluorescence and quenching.
# Sequence of UniProt Q92731 (Q92731 whole entry, looked up): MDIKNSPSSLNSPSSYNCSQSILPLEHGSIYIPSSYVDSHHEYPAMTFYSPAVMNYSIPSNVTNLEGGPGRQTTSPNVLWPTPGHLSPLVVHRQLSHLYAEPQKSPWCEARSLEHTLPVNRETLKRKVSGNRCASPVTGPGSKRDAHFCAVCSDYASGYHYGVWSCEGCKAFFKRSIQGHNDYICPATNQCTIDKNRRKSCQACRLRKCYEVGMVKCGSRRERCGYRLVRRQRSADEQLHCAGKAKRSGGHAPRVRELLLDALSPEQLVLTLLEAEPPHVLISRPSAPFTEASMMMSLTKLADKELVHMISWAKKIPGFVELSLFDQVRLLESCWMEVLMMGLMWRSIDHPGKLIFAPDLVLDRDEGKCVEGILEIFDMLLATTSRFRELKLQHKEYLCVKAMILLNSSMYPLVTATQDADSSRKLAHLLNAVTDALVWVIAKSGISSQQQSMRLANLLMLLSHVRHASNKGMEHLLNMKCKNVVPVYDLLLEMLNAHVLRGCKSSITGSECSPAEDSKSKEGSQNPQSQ
smiles,measurement,setting,value
Oc1ccc(Cc2ccc(O)cc2)cc1,Potency,[1],inactive
same,Potency,[2],"inconclusive: 22 µM [cytotoxic, partial curve]"
same,Potency,[3],"inconclusive: 27.5 µM [inhibitor, partial curve]"
same,Potency,[4],active: 5.49 µM
same,Potency,[5],"inconclusive: 19.5 µM [rising, full curve]"
CCCCCCCCc1ccc(O)cc1,Potency,[1],"inconclusive: 49.3 µM [cytotoxic, partial curve]"
same,Potency,[6],"inconclusive: 22 µM [activator, full curve, poor fit]"
same,Potency,[7],"inconclusive: 48.9 µM [cytotoxic, partial curve]"
same,Potency,[8],"inconclusive: 69 µM [cytotoxic, single point]"
same,Potency,[9],"inconclusive: 54.8 µM [cytotoxic, partial curve]"
same,Potency,[3],inconclusive: 30.8 µM [inhibitor]
same,Potency,[4],inconclusive: 15.4 µM [fluorescent]
same,Potency,[5],inconclusive: 32.7 µM
O=C1C2(Cl)C3(Cl)C4(Cl)C(Cl)(Cl)C5(Cl)C3(Cl)C1(Cl)C5(Cl)C24Cl (stereo not drawn),Potency,[1],active: 48.2 µM and active: 46.9 µM
same,Potency,[6],active: 42.9 µM and active: 52.6 µM
same,Potency,[10],"inconclusive: 171 nM [cytotoxic, single point] and inactive"
same,Potency,[8],"active: 60.1 µM and inconclusive: 65.7 µM [cytotoxic, single point]"
same,Potency,[11],"inconclusive: 67.5 µM [cytotoxic, single point]"
same,Potency,[9],active: 26.9 µM and inconclusive: 65.7 µM [cytotoxic]
same,Potency,[12],active: 37.9 µM and active: 58.5 µM
same,Potency,[13],"inconclusive: 67.5 µM [cytotoxic] and inconclusive: 65.7 µM [cytotoxic, single point]"
O=C(Nc1ccc2[nH]ccc2c1)c1cc2cc(F)ccc2n1Cc1cccc(F)c1,Potency,[1],"inconclusive: 38.9 µM [cytotoxic, partial curve]"
same,Potency,[8],"inconclusive: 61.1 µM [cytotoxic, single point]"
same,Potency,[5],active: 17.2 µM
same,Potency,[13],inconclusive: 61.1 µM [cytotoxic]
C=CC(=O)OCC(CC)(COC(=O)C=C)COC(=O)C=C,Potency,[1],active: 25.2 µM and active: 13.8 µM
same,Potency,[7],"inconclusive: 68.6 µM [cytotoxic, partial curve]"
same,Potency,[8],"active: 31.5 µM and inconclusive: 27.3 µM [cytotoxic, partial curve]"
same,Potency,[11],"inconclusive: 19.9 µM [rising, full curve] and inconclusive: 13.7 µM [rising, full curve]"
same,Potency,[9],active: 11.2 µM and active: 9.69 µM
same,Potency,[14],"inconclusive: 6.11 µM [activator, single point]"
same,Potency,[3],active: 2.23 µM and active: 3.06 µM
same,Potency,[13],active: 62.8 µM and active: 24.3 µM
COc1ccccc1OC,Potency,[2],inactive
CCCCCCCCCC(CC)c1ccc(S(=O)(=O)O)cc1 (stereo not drawn),Potency,[2],"inconclusive: 34.8 µM [cytotoxic, partial curve, poor fit] and inconclusive: 8.49 µM [cytotoxic, partial curve] and inconclusive: 21.9 µM [cytotoxic]"
same,Potency,[15],"inconclusive: 39.3 µM [cytotoxic, partial curve] and inconclusive: 10.7 µM [cytotoxic, partial curve] and inconclusive: 24.5 µM [cytotoxic]"
same,Potency,[6],"inconclusive: 24.5 µM [activator, partial curve]"
same,Potency,[10],"inconclusive: 54.9 µM [cytotoxic, single point]"
same,Potency,[16],"inconclusive: 62.3 µM [activator, partial curve, poor fit] and inconclusive: 43.6 µM [activator, partial curve, poor fit] and inconclusive: 49 µM [activator, single point]"
same,Potency,[7],"inconclusive: 68.6 µM [cytotoxic, partial curve, poor fit]"
same,Potency,[12],"inconclusive: 49.1 µM [cytotoxic, partial curve, poor fit] and inconclusive: 48.6 µM [cytotoxic, partial curve, poor fit]"
same,Potency,[3],"inconclusive: 15.5 µM [inhibitor, single point]"
same,Potency,[13],"inconclusive: 21.7 µM [cytotoxic, full curve]"
